Data as given in PubChem BioAssay (NCATS).
This list was built around the results that the source calls inconclusive (neither active nor inactive); the mix of calls is not that of the screen. Potencies beside an inconclusive call are fits to weak or partial responses and may not hold up. Calls of active or inactive are those of the source. Calls come from the whole dose curve; as a rule, active = well fitted cell-killing curve with a large enough effect; inconclusive = small, poorly fitted or top-dose-only effect, or effect the other way; inactive = flat fitted curve, though single readings scatter.

Experiments:
Test in all cases: Primary qHTS to identify gynecologic anti-cancer compounds using libraries of approved drugs and bioactive compounds (AID 1345084); note: nearly all actives have a fitted effect of over 55% in size
Conditions in all cases: Gynecologic cancer cell panel viability, ATPlite luminescence, 48 h; series mostly up to 57.5 µM
PA-1 = tested on: PA-1
Procedure, shortened: (§1)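 Cells, 1,000 per well, plated 16 h, then exposed 48 h at 37 C to compounds. Viability by ATPlite luminescence after 15 min at room temperature.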

SKOV3 = tested on: SKOV3
Procedure, shortened: as §1

Tov-21-G = tested on: Tov-21-G
Procedure, shortened: as §1

Tov112D = tested on: Tov112D
Procedure, shortened: as §1
Potency is the fitted concentration of half-maximal effect; tags give direction and shape of the fitted curve.

| SMILES | Potency (PA-1) | Potency (SKOV3) | Potency (Tov-21-G) | Potency (Tov112D) |
| --- | --- | --- | --- | --- |
| O=C1Nc2ccc3ncsc3c2/C1=C/c1cnc[nH]1 | active: 7.94 µM | inconclusive: 15.8 µM [cytotoxic, partial curve, poor fit] | inconclusive: 3.55 µM [cytotoxic, single point] | inconclusive: 12.6 µM [cytotoxic, partial curve, poor fit] |
| CC1=CC2OC3[C@H](O)C[C@@](C)([C@]34CO4)[C@@]2(CO)[C@H](O)C1=O (some centres undefined) | inconclusive: 5.01 µM [cytotoxic, full curve] | inconclusive: 12.6 µM [cytotoxic, partial curve, poor fit] | active: 14.1 µM | inconclusive: 14.1 µM [cytotoxic, partial curve] |
| CO[C@H]1C[C@H](O[C@H]2CC[C@]3(C=O)[C@H]4CC[C@]5(C)[C@@H](C6=CC(=O)OC6)CC[C@]5(O)[C@@H]4CC[C@]3(O)C2)O[C@H](C)[C@H]1O | active: 0.141 µM | active: 0.141 µM | active: 0.141 µM | active: 0.0891 µM |
| C[C@@H]1C[C@@H](O)[C@]2(O)O[C@@H]3C[C@@]4(C=O)C(CC[C@@H]5C4CC[C@]4(C)[C@@H](C6=CC(=O)OC6)CC[C@]54O)C[C@H]3O[C@@H]2O1 (some centres undefined) | inconclusive: 0.141 µM [cytotoxic, full curve, poor fit] | inconclusive: 0.141 µM [cytotoxic, full curve, poor fit] | inconclusive: 0.0891 µM [cytotoxic, full curve, poor fit] | inconclusive: 3.55 µM |
| COC[C@]12CN(C)C3C4[C@H](OC)[C@H]1C3(C(OC)C[C@H]2O)[C@H]1C[C@@]2(O)[C@H](OC(=O)c3ccccc3)[C@@H]1[C@]4(O)[C@@H](O)[C@@H]2OC (some centres undefined) | inconclusive: 35.5 µM [cytotoxic, single point] | inconclusive: 28.2 µM [cytotoxic, single point] | inconclusive: 22.4 µM [cytotoxic, single point] | inconclusive: 35.5 µM [cytotoxic, single point] |
| O=C(N[C@@H]1N=C(c2ccccc2F)c2cccc3c2N(CC3)C1=O)c1cc2ccccc2[nH]1 | inconclusive: 12.6 µM [cytotoxic, single point] | inconclusive: 11.2 µM [cytotoxic, single point] | inconclusive: 12.6 µM [cytotoxic, single point] | inconclusive: 12.6 µM [cytotoxic, single point] |
| C[CH2][Hg][S]c1ccccc1C(=O)O | inconclusive: 31.6 µM [cytotoxic, partial curve, poor fit] | inconclusive: 35.5 µM [cytotoxic, single point] | active: 35.5 µM | inconclusive: 39.8 µM [cytotoxic, single point] |
| CC[C@@H](C)[C@H]1C(=O)O[C@H](C(C)C)C(=O)N(C)[C@@H](C(C)C)C(=O)O[C@H](C(C)C)C(=O)N(C)[C@@H](C(C)C)C(=O)O[C@H](C(C)C)C(=O)N1C | inconclusive: 12.6 µM [cytotoxic, single point] | inconclusive: 12.6 µM [cytotoxic, single point] | inconclusive: 12.6 µM [cytotoxic, single point] | inconclusive: 11.2 µM [cytotoxic, single point] |
| Cc1cccc(NC(=O)c2ccc(C(F)(F)F)cc2C(=O)O)n1 | inconclusive: 28.2 µM [cytotoxic, single point] | inconclusive: 25.1 µM [cytotoxic, single point] | inconclusive: 39.8 µM [cytotoxic, single point] | inconclusive: 39.8 µM [cytotoxic, single point] |
| CO[C@@H]1C[C@H](O[C@H]2CC[C@@]3(C)C(CCC4C3CC[C@]3(C)[C@@H](C5=CC(=O)OC5)[C@@H](OC(C)=O)CC43O)C2)O[C@H](C)[C@@H]1O[C@H]1O[C@H](CO[C@@H]2O[C@H](CO)[C@@H](O)[C@H](O)[C@H]2O)[C@@H](O)[C@H](O)[C@H]1O (some centres undefined) | active: 2 µM | active: 2 µM | active: 0.794 µM | active: 0.316 µM |
| CO[C@]12CC[C@@]3(C[C@@H]1[C@](C)(O)C(C)(C)C)[C@@H]1Cc4ccc(O)c5c4[C@@]3(CCN1CC1CC1)[C@H]2O5 | inconclusive: 70.8 µM [cytotoxic, single point] | inconclusive: 39.8 µM [cytotoxic, single point] | inconclusive: 70.8 µM [cytotoxic, single point] | inconclusive: 63.1 µM [cytotoxic, single point] |
